Laboratory results from PubChem BioAssay AID1745845 (National Center for Advancing Translational Sciences (NCATS), 2022).
Out of some 360,000 compounds screened, about 2,600 (0.72%) were called active. This list was built around the results that the source calls inconclusive (neither active nor inactive); the mix of calls is not that of the screen. Calls come from the whole dose curve; as a rule, active = well fitted inhibition curve with a large enough effect; inconclusive = small, poorly fitted or top-dose-only effect; inactive = no such curve, though single readings can be large or run the other way. Potencies beside an inconclusive call are fits to weak or partial responses and may not hold up.

Assay: Primary qHTS for Inhibitors of ATXN expression; note: nearly all actives have a fitted effect of over 55% in size
Settings: HEK-293 ATXN2-luciferase reporter, luminescence, 24 h; series mostly up to 57 µM
Summary of the method: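 ATXN2-luciferase reporter cells (luciferase flanked by upstream and downstream ATXN2 gene portions) were treated 24 h at 37 °C with compounds at up to 57 uM. SteadyGlo luminescence gave expression; GF-AFC fluorescence gave viability.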
Potency is the fitted concentration of half-maximal effect; tags give direction and shape of the fitted curve.

Potency, inactive:
CCCCN=C1CC(C)(C)CC(=O)/C1=C(/O)CCC, COc1cccc2cc(S(=O)(=O)c3ccc(F)c(C)c3)c(=O)oc12

Potency, active:
O=C(N/N=C/c1ccc[nH]1)c1ccc(COc2cccc3cccnc23)cc1 7.52 µM, O=C1C(=O)c2ccccc2C(O)=C1CCCCl 25.1 µM, Cc1ccc(-c2nc(-c3ccccn3)no2)cc1 2 µM

Potency, inconclusive:
CCc1c(C)sc2c1CCN(Cc1ccccc1)C2c1ccccc1 (configuration not stated) 28.2 µM [inhibitor, single point], COc1ccc(NC(=O)CNC(=O)c2ccc([N+](=O)[O-])cc2)cc1 0.708 µM [inhibitor, partial curve, poor fit], O=C(CCCN1C(=O)/C(=C/c2cccc(Br)c2)SC1=S)Nc1cccnc1 35.5 µM [inhibitor, single point], O=C(N[C@@H]1C/C=C\C[C@H](CC(=O)N(CCO)Cc2ccccc2)C(=O)N[C@@H](Cc2ccccc2)COC1=O)OCC1c2ccccc2-c2ccccc21 39.8 µM [inhibitor, partial curve, poor fit], Cc1nc2nc(SCC(=O)N(C)Cc3ccccc3)nn2c(C)c1Cc1ccccc1Cl 39.8 µM [inhibitor, single point], Cc1c(Cl)cccc1-c1ccc(CNCCCSc2nnnn2C)o1 31.6 µM [inhibitor, partial curve, poor fit], Cc1ccc(Cn2nc(C)c(NC(=O)CSc3nc4c(c(C(F)(F)F)n3)CCc3ccccc3-4)c2C)cc1 31.6 µM [inhibitor, partial curve, poor fit], CCN(CC)c1cc(C)c2cc(NC(=O)c3cccc(OC)c3OC)ccc2n1 39.8 µM [inhibitor, single point], CC1CCCN(S(=O)(=O)c2ccc(NC(=O)Cc3ccc(S(=O)(=O)N4CCOCC4)s3)cc2)C1 (configuration not stated) 39.8 µM [inhibitor, partial curve, poor fit], CCCCCc1c(-c2cccc(Br)c2)ncn1CCc1ccccc1OC 20 µM [inhibitor, single point], CN1/C(=C\C(=S)NC(=O)c2cccc(Br)c2)C(C)(C)c2ccccc21 17.8 µM [inhibitor, partial curve, poor fit], COc1ccc(C(NC(=O)C2CCN(CCOc3ccc(Cl)cc3Cl)CC2)c2ccccc2C)cn1 (configuration not stated) 35.5 µM [inhibitor, single point]
